Among all 310,000 compounds or so, about 2,200 (0.71%) showed an effect of 50% or more. Effects have a minus sign here. This is one part of the list.

This assay deals with human ether-à-go-go-related gene (hERG) potassium channel (human, UniProt Q12809). Put plainly: primary screen, population patch clamp on CHO cells stably expressing hERG.
human ether-à-go-go-related gene (hERG) potassium channel, sequence (Q12809 whole entry, looked up): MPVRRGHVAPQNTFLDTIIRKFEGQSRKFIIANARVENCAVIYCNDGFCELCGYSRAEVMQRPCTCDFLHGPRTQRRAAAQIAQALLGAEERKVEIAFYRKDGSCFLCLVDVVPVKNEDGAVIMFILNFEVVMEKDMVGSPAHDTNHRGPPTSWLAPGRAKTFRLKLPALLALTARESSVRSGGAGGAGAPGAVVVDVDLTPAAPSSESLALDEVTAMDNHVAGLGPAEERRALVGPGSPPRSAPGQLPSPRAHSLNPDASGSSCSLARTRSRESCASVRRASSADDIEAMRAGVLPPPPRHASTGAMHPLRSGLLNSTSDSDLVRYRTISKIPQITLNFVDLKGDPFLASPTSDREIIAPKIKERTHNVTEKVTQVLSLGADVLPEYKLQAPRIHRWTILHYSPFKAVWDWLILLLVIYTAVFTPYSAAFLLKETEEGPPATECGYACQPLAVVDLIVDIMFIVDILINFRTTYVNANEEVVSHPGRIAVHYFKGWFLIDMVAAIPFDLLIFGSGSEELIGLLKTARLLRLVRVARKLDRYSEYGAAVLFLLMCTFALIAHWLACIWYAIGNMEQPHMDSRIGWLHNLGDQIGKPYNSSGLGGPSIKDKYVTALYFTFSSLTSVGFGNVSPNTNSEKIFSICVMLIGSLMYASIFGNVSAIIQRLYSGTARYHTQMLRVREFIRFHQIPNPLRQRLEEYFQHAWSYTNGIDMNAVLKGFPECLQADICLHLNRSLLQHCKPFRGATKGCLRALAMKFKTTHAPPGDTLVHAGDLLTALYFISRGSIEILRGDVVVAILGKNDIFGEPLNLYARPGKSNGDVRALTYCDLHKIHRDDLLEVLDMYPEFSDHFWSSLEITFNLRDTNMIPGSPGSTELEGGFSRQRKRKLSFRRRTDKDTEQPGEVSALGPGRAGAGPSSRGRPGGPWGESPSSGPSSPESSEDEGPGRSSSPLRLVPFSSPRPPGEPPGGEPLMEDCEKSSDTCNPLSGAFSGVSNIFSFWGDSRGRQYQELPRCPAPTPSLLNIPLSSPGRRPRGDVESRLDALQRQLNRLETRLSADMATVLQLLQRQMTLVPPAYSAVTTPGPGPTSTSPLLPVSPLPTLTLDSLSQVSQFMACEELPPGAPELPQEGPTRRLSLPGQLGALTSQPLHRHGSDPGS
Regarding `CCN(CC)S(=O)(=O)c1ccc(N(C)Cc2cccnc2)nc1`, the “hERG current change (%, negative = inhibition) at 1uM” value amounted to 4.93%.
The same measure for `CC1(C)Cc2c(c(N3CCOCC3)nc3sc4c(=O)[nH]cnc4c23)CS1`: 7.64%; for `Cc1ccc(C(=O)N/N=C/c2ccc(-c3ccc(Br)cc3[N+](=O)[O-])o2)o1`: 5.65%.
The same measure for `CCOC(=O)CNS(=O)(=O)c1ccc(C)cc1`: 1.26%; for `O=C(COc1ccccc1)Nc1ccccc1N1CCN(c2ccccc2)CC1`: 4.83%; for `COCCNC(=S)N(CCc1c(C)[nH]c2ccc(F)cc12)Cc1cccnc1`: 10.9%.
On to `CCN(CC(=O)NCc1ccc(Cl)cc1)C(=O)CSc1cc(C)ccc1C`, for which the “hERG current change (%, negative = inhibition) at 1uM” value turned out to be 3.79%.
As for `COc1ccc(OC)c(NC(=O)COC(=O)c2ccc(-n3cnnn3)cc2)c1`, the “hERG current change (%, negative = inhibition) at 1uM” value is given as 5.6%.
On to `COc1ccc(N2C(=O)CC(=O)NC2=O)cc1`, for which the “hERG current change (%, negative = inhibition) at 1uM” value stood at 3.58%.
The same measure for `CCOc1ccc(Br)c(C2(O)CC(C)N(C)CC2C)c1` (stereo not drawn): 4.43%; for `Nc1nc(SCC(=O)NC2CCCCC2)n[nH]1`: 15%; for `Cc1cc(C(=O)OCC(=O)Nc2cccc(S(=O)(=O)N(C)C)c2)c2ccccc2n1`: 11%.
As to `CCOC(=O)CSc1nnc(NC(=O)c2cccc([N+](=O)[O-])c2)s1`, the “hERG current change (%, negative = inhibition) at 1uM” value stood at 11.5%.
For the compound `COc1ccccc1Cc1nc2ccccc2n1S(=O)(=O)c1ccc(Cl)cc1`, the “hERG current change (%, negative = inhibition) at 1uM” value is listed as 10.3%.
With `COc1ccc(NC(=O)COC(=O)c2ccc(N3CCCC3=O)cc2)cc1OC`, the “hERG current change (%, negative = inhibition) at 1uM” value worked out at 17.1%.
As for `CN1CCN(CC(=O)Nc2c(C#N)cnn2-c2ccccc2)CC1`, the “hERG current change (%, negative = inhibition) at 1uM” value turned out to be 11.5%.
For `COc1ccc(N2CCN(c3ccc(N4C(=O)COCC4=O)cc3[N+](=O)[O-])CC2)cc1`, the “hERG current change (%, negative = inhibition) at 1uM” value is given as 1.32%.
Turning to `CN(CC(=O)NC(=O)NC1CCCCC1)CC(=O)Nc1ccc(Cl)cc1`, the “hERG current change (%, negative = inhibition) at 1uM” value amounted to 3.5%.
Regarding `CC(C)n1nc(C(=O)Nc2cccc(S(=O)(=O)NCc3ccco3)c2)c2ccccc2c1=O`, the “hERG current change (%, negative = inhibition) at 1uM” value was 11.4%.
The same measure for `CC1C(=O)Nc2ccc(S(=O)(=O)Nc3ccccc3Br)cc2NC1=O` (stereo not drawn): 4.97%; for `O=C(CCNC(=O)N1CC(=O)Nc2ccccc21)NCCc1cccc(F)c1`: 11.9%.
Regarding `COC(=O)c1ccc(NC(=S)N2CCC(C(N)=O)CC2)cc1`, the “hERG current change (%, negative = inhibition) at 1uM” value came out at 14.4%.
As for `O=C(Nc1cccc([N+](=O)[O-])c1)Nc1cnccn1`, the “hERG current change (%, negative = inhibition) at 1uM” value was 12%.
For `Cc1cc(C(=O)CSc2nc(N)cc(N)n2)c(C)n1-c1cccc(F)c1`, the “hERG current change (%, negative = inhibition) at 1uM” value is 6.26%.
The same measure for `CCCC#Cc1ccc2c(c1)COc1c3ccccc3nn1-2`: 16.3%.
As for `COc1ccc(NC(=O)CN2C(=O)NC3(CCCC3)C2=O)c(OC)c1`, the “hERG current change (%, negative = inhibition) at 1uM” value turned out to be 10.2%.
Regarding `COc1ccc(Cl)cc1NC(=O)c1nnn(CC(=O)Nc2ccc(C)c(C)c2)c1N`, the “hERG current change (%, negative = inhibition) at 1uM” value is 14.9%.
For the compound `COc1ccc(OC)c(CC(NC(C)=O)C(=O)NC2CCN(c3nnnn3-c3ccccc3)CC2)c1` (stereo not drawn), the “hERG current change (%, negative = inhibition) at 1uM” value amounted to 2.82%.
The same measure for `CCC(CC)NC(=O)c1cc(OC)c(OC)cc1[N+](=O)[O-]`: 14.8%.
For `O=C(Nc1nc2c(s1)CCCC2)c1cc(-c2ccncc2)nc2ccccc12`, the “hERG current change (%, negative = inhibition) at 1uM” value came out at 2.28%.
On to `Cc1cccc2cc(COC(=O)c3ccco3)c(=O)[nH]c12`, for which the “hERG current change (%, negative = inhibition) at 1uM” value worked out at 5.33%.
Then `CC1(C)CC(=O)c2sc(NS(=O)(=O)c3ccc(Br)cc3)nc2C1`, with 13.3%.
Regarding `Cc1ccnc(SCC(=O)Nc2cc(C)on2)n1`, the “hERG current change (%, negative = inhibition) at 1uM” value stood at 17.3%.
Consider `CCOc1cccc(C(=O)N2CCCN(C)CC2)c1`, for which the “hERG current change (%, negative = inhibition) at 1uM” value amounted to 1.7%.
With `CCOC(=O)C1=C(C)NC(C)=C(C(=O)OCC)C1c1ccccn1`, the “hERG current change (%, negative = inhibition) at 1uM” value was 15.6%.
Then `O=C(Nc1ccc(Nc2ccccc2)cc1)c1ccco1`, with 3.39%; and `COc1cc2[nH]c3c(c2cc1OC)CCN1CCCC[C@@H]31`, with 15%.
For the compound `CCCCCC(=O)NC(=S)Nc1cccc(-c2nc3ncccc3o2)c1`, the “hERG current change (%, negative = inhibition) at 1uM” value is listed as -0.146%.
Then `Cc1nc2cc(NS(=O)(=O)c3ccccc3)ccc2n1C`, with 13.2%; and `COC(=O)c1c(N(S(C)(=O)=O)S(C)(=O)=O)sc2c1CCN(c1ncc(C(F)(F)F)cc1Cl)C2`, with 8.21%; and `COc1ccc([C@H]2CC(=O)C=C(c3cccc4c3Oc3ccccc3S4)C2)cc1OC`, with 1.6%.
As to `COC(=O)CCC(=O)OC1(C)C(=O)C=C2C=C(C3CC3)N(CCc3ccccn3)C=C2C1=O` (stereo not drawn), the “hERG current change (%, negative = inhibition) at 1uM” value worked out at 7.19%.
As for `C=C(C)c1ccc(C(C)(C)NC(=O)N(Cc2ccccc2)Cc2ccco2)cc1`, the “hERG current change (%, negative = inhibition) at 1uM” value is listed as -6.17%.
Regarding `O=C(NCc1ccccc1)C(c1ccco1)N(C(=O)c1ccccn1)c1ccccc1` (stereo not drawn), the “hERG current change (%, negative = inhibition) at 1uM” value is on record as 8.3%.
Then `COC(=O)CC1C(=O)NCCN1C(=O)c1cc(OC)c(OC)cc1OC` (stereo not drawn), with 16.3%.
The same measure for `CCC(C(=O)Nc1nc(C)c(C(=O)OC)s1)c1ccccc1` (stereo not drawn): 1.45%.
Consider `O=C(NCc1ccccc1)c1onc(CSc2ccc(Cl)cc2)c1C(=O)NCc1ccccc1`, for which the “hERG current change (%, negative = inhibition) at 1uM” value turned out to be 10.1%.
The same measure for `COc1ccc(CNCC(=O)N2CCC3(CC2)OCCO3)cc1.O=C(O)C(=O)O`: 1.35%; for `Cc1cc(C)c(NC(=O)CCCC(=O)O)c(Cl)c1`: 7.12%.
The same measure for `C#CCOC(=O)Nc1cccn(Cc2c(Cl)cccc2Cl)c1=O`: 4.96%; for `CCOc1ccccc1N(CC(=O)NCCSCc1ccco1)S(=O)(=O)c1ccccc1`: 9.02%; for `COC(=O)c1ccc(CO/N=C2\CCCc3nonc32)cc1`: -3.26%.
Then `CCc1nnc(NC(=O)CCC(=O)N2CCCC2)s1`, with 13.4%; and `Cc1ccc(CNC(=O)CN(C)C2=NS(=O)(=O)c3ccccc32)cc1`, with 0.964%; and `c1cc(-c2nsc(-c3ccncc3)n2)ccn1`, with 4.82%.
Take `Cc1ccc(N2C(=O)CCC2(C(N)=O)c2ccccc2)cc1` (stereo not drawn): the “hERG current change (%, negative = inhibition) at 1uM” value was found to be 0.771%.
On to `CCCCn1nc(C(=O)Nc2nc3c(s2)CCCC3)c2ccccc2c1=O`, for which the “hERG current change (%, negative = inhibition) at 1uM” value is on record as 0.207%.

The record behind these values is PMC4336329 (PLoS ONE, 2015).
